Data taken from the supplement of paper PMC11741623.
The other results are listed elsewhere or left out. Interaction screen of human proteins with wild-type SARS-CoV-2 proteins by split-DHFR complementation in yeast, 1 µg/mL methotrexate. Value = fitness of the pair (three or more lineages) minus that of the viral protein without a human partner, on a scale set by negative (0) and fused positive (1) controls, mean of up to three cultures; higher = more likely to interact. Active = false discovery rate below 0.05 (one-sided t-test) in at least one culture. Nearly all pairs are not hits, and differences among them are mostly noise (correlation between cultures about 0.3); most hits were seen in one culture only. Human sequences are the Swiss-Prot entries looked up by gene name; the clone may be another isoform. NSP2 values were corrected by the authors for a growth advantage. Listed are human proteins with a hit and a random twelfth of the others.

Tests used:
Experiment in all cases: yeast fitness gain over the viral ORF with no human partner (scaled fitness); higher = more likely to interact
[1] = target: SARS-CoV-2 M
Procedure: (§1)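 Split mouse DHFR complementation in pooled diploid yeast: human ORFeome clones carry one fragment and viral ORFs the other; barcoded lineages compete in 1 µg/mL methotrexate and fitness is read by barcode sequencing in up to three cultures.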

[2] = target: SARS-CoV-2 NSP1
Procedure: as §1

[3] = target: SARS-CoV-2 NSP10
Procedure: as §1

[4] = target: SARS-CoV-2 NSP12
Procedure: as §1

[5] = target: SARS-CoV-2 NSP13
Procedure: as §1

[6] = target: SARS-CoV-2 NSP15
Procedure: as §1

[7] = target: SARS-CoV-2 NSP16
Procedure: as §1

[8] = target: SARS-CoV-2 NSP2
Procedure: as §1

[9] = target: SARS-CoV-2 NSP4
Procedure: as §1

[10] = target: SARS-CoV-2 NSP5
Procedure: as §1

[11] = target: SARS-CoV-2 NSP6
Procedure: as §1

[12] = target: SARS-CoV-2 NSP7
Procedure: as §1

[13] = target: SARS-CoV-2 NSP8
Procedure: as §1

[14] = target: SARS-CoV-2 NSP9
Procedure: as §1

[15] = target: SARS-CoV-2 ORF10
Procedure: as §1

[16] = target: SARS-CoV-2 ORF3A
Procedure: as §1

[17] = target: SARS-CoV-2 ORF3B
Procedure: as §1

[18] = target: SARS-CoV-2 ORF6
Procedure: as §1

[19] = target: SARS-CoV-2 ORF7A
Procedure: as §1

[20] = target: SARS-CoV-2 ORF7B
Procedure: as §1

[21] = target: SARS-CoV-2 ORF8
Procedure: as §1

[22] = target: SARS-CoV-2 ORF9B
Procedure: as §1

[23] = target: SARS-CoV-2 ORF9Bwu (the 73-codon ORF)
Procedure: as §1

[24] = target: SARS-CoV-2 S
Procedure: as §1

[25] = target: SARS-CoV-2 N
Procedure: as §1

[26] = target: SARS-CoV-2 NSP14
Procedure: as §1

Measured: yeast fitness gain

B1: HELLS, Q9NRZ9 (protein)
chain: MPAERPAGSGGSEAPAMVEQLDTAVITPAMLEEEEQLEAAGLERERKMLEKARMSWDRESTEIRYRRLQHLLEKSNIYSKFLLTKMEQQQLEEQKKKEKLERKKESLKVKKGKNSIDASEEKPVMRKKRGREDESYNISEVMSKEEILSVAKKNKKENEDENSSSTNLCVEDLQKNKDSNSIIKDRLSETVRQNTKFFFDPVRKCNGQPVPFQQPKHFTGGVMRWYQVEGMEWLRMLWENGINGILADEMGLGKTVQCIATIALMIQRGVPGPFLVCGPLSTLPNWMAEFKRFTPDIPTMLYHGTQEERQKLVRNIYKRKGTLQIHPVVITSFEIAMRDRNALQHCYWKYLIVDEGHRIKNMKCRLIRELKRFNADNKLLLTGTPLQNNLSELWSLLNFLLPDVFDDLKSFESWFDITSLSETAEDIIAKEREQNVLHMLHQILTPFLLRRLKSDVALEVPPKREVVVYAPLSKKQEIFYTAIVNRTIANMFGSSEKETIELSPTGRPKRRTRKSINYSKIDDFPNELEKLISQIQPEVDRERAVVEVNIPVESEVNLKLQNIMMLLRKCCNHPYLIEYPIDPVTQEFKIDEELVTNSGKFLILDRMLPELKKRGHKVLLFSQMTSMLDILMDYCHLRDFNFSRLDGSMSYSEREKNMHSFNTDPEVFIFLVSTRAGGLGINLTAADTVIIYDSDWNPQSDLQAQDRCHRIGQTKPVVVYRLVTANTIDQKIVERAAAKRKLEKLIIHKNHFKGGQSGLNLSKNFLDPKELMELLKSRDYEREIKGSREKVISDKDLELLLDRSDLIDQMNASGPIKEKMGIFKILENSEDSSPECLF
inactive: [1] -0.0555 | [2] 0.0428 | [3] -0.0306 | [4] -0.0861 | [5] 0.0255 | [6] 0.00945 | [7] -0.0443 | [8] -0.141 | [9] -0.0312 | [10] 0.0276 | [11] 0.0105 | [12] -0.0638 | [13] 0.0313 | [14] 0.0758 | [15] -0.00964 | [16] 0.0831 | [17] -0.00438 | [18] -0.0127 | [19] -0.1 | [20] 0.0344 | [21] 0.0318 | [22] -0.019 | [23] -0.0228 | [24] 0.0133

B2: ARFIP2, P53365 (protein)
chain: MTDGILGKAATMEIPIHGNGEARQLPEDDGLEQDLQQVMVSGPNLNETSIVSGGYGGSGDGLIPTGSGRHPSHSTTPSGPGDEVARGIAGEKFDIVKKWGINTYKCTKQLLSERFGRGSRTVDLELELQIELLRETKRKYESVLQLGRALTAHLYSLLQTQHALGDAFADLSQKSPELQEEFGYNAETQKLLCKNGETLLGAVNFFVSSINTLVTKTMEDTLMTVKQYEAARLEYDAYRTDLEELSLGPRDAGTRGRLESAQATFQAHRDKYEKLRGDVAIKLKFLEENKIKVMHKQLLLFHNAVSAYFAGNQKQLEQTLQQFNIKLRPPGAEKPSWLEEQ
inactive: [1] -0.28 | [2] -0.0858 | [3] -0.105 | [4] -0.035 | [5] -0.0325 | [8] -0.0843 | [10] 0.0725 | [11] 0.128 | [12] -0.0121 | [15] 0.0143 | [17] -0.0264 | [18] 0.0384 | [19] -0.07 | [20] 0.0187 | [21] -0.0883 | [22] 0.0455 | [23] -0.327 | [24] -0.0769

B3: ARL2BP, Q9Y2Y0 (protein)
chain: MDALEGESFALSFSSASDAEFDAVVGYLEDIIMDDEFQLLQRNFMDKYYLEFEDTEENKLIYTPIFNEYISLVEKYIEEQLLQRIPEFNMAAFTTTLQHHKDEVAGDIFDMLLTFTDFLAFKEMFLDYRAEKEGRGLDLSSGLVVTSLCKSSSLPASQNNLRH
inactive: [1] -0.137 | [2] 0.0444 | [3] -0.0665 | [4] -0.177 | [5] -0.0512 | [6] 0.00879 | [7] -0.024 | [8] -0.0507 | [9] -0.14 | [10] 0.0114 | [11] -0.105 | [12] 0.0306 | [13] -0.0942 | [14] 0.00507 | [15] 0.0368 | [16] 0.0667 | [17] -0.0743 | [18] -0.00448 | [19] -0.0307 | [20] 0.0216 | [21] -0.0189 | [22] -0.0342 | [23] -0.0676 | [24] 0.026

B4: B3GNTL1, Q67FW5 (protein)
chain: MQAHVSIILPVHNAEPWLDECLRSVLQQDFEGTMELSVFNDASKDKSGAIIEKWRVKLEDSGVHVIIGGHDSPSPRGVGYAKNQAVAQSSGSYLCFLDSDDVMMPQRVRLQHEAAVQHPSSIIGCRVRRDPPNSTERYTRWINQLTPEQLLTQVFTSNGPTVIMPTWFCSRAWFSHVGPFNEGGQGVPEDLLFFYEHLRKGGGVIRVDQSLLLYRHHPQAATHCVLETTIWTHRVRFLEEQALPRWAAFTIWNAGKQGRRLYRSLTAGSQRKVVAFCDVDENKIRKGFYCHEDSQERPKPRIPILHFRAARPPFVICVKLDLTGGAFEDNLRSLHLQEGQDFLHFS
inactive: [1] -0.0411 | [25] -0.073 | [2] 0.0568 | [3] -0.0414 | [4] -0.0122 | [5] -0.0068 | [26] -0.0388 | [6] 0.071 | [7] -0.0542 | [8] -0.149 | [9] 0.0334 | [10] -0.0496 | [11] -0.0436 | [12] -0.0147 | [13] -0.0778 | [14] 0.158 | [15] 0.025 | [17] 0.0454 | [18] -0.0323 | [19] -0.0676 | [20] 0.0136 | [21] -0.111 | [22] 0.0735 | [23] 0.0586 | [24] -0.117
